According to PubChem BioAssay AID1963576 (National Center for Advancing Translational Sciences (NCATS), 2024):
The whole screen tested about 46,000 compounds, of which about 60 (0.1%) were called active. Inconclusive results (about 3%) are left out. Calls follow the shape of the dose curve; as a rule, active = well fitted inhibition curve with a large enough effect; inconclusive = small, poorly fitted or top-dose-only effect; inactive = no such curve, though single readings can be large or run the other way. This is one part of the list.

experiment: Primary qHTS assay for Inhibitors of ovarian cancer metastasis using an organotypic tumor microenvironment (TME) model.; also: nearly all actives have a fitted effect of over 65% in size;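 as to activity change, negative = inhibition: plate controls were DMSO wells for no effect and tomatine positive control wells for full effect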; conditions: SKOV3ip1-GFP adhesion/invasion on 3D omental model, fluorescence; series mostly up to 45.8 µM; activity change, negative = inhibition: at the top concentration
Method in brief: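 qHTS, 4-pt dose (0.36-46 umol/L); SKOV3ip1-GFP, 1,200 cells/well, no FBS; primary omental fibroblast/mesothelial co-culture 48 h pre-grown; 2 h RT + 16 h 37 C; PBS wash, 4% PFA; GFP count 488/509 nm.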

Activity change, negative = inhibition, inactive:
O=C(Nc1cc(C(F)(F)F)ccc1Cl)c1cc(S(=O)(=O)NCc2ccccc2)ccc1F -20.9%
CCOC(=O)c1cccc(NC(=O)Cn2c(=O)nc(-c3ccccc3)c3ccccc32)c1 6.81%
CCc1cc2c(cc3c(=O)n(CCCC(=O)NCc4ccccc4Cl)nc(CC)n32)s1 -5.94%
Cc1cccc(OCc2ccc(-c3nc(C#N)c(N4CCC(C(N)=O)CC4)o3)o2)c1 -15.2%
Cc1ccc(OCC(=O)Nc2ccc3nc(SCc4ccccc4)sc3c2)cc1 1.27%
Cc1noc(/C=C/c2ccco2)c1S(=O)(=O)N1CCC(C(=O)Nc2ccc(F)cc2F)CC1 -3.02%
COc1ccc(NC(=O)C(Cc2ccccc2)NS(=O)(=O)c2ccc(Br)s2)cc1OC (stereo unspecified) -8.32%
Cc1ccc(-c2nc3ncccc3o2)cc1NC(=O)COc1ccc(C(C)C)cc1 6.83%
CCOC(=O)c1cccc(NC(=O)CC2C(=O)N(c3ccc(F)cc3)C(=O)N2C(C)C)c1 (stereo unspecified) 0.0477%
CCn1cc(C(=O)N2CCN(c3ccccc3)CC2)c(=O)c2cc(S(=O)(=O)N(C)C3CCCCC3)ccc21 11.9%
CC(=O)CSc1nc(-c2ccccc2)[nH]c1S(=O)(=O)c1ccc(C)cc1 16.9%
COC(=O)c1ccc(Cn2c(=O)cc(C)c3c(C)nn(C)c32)cc1 -7.75%
CCc1ccc(CNC(=O)c2nn(-c3ccc(C)c(C)c3)nc2CO)cc1 -3.43%
Cc1ccc2c(CNCc3cccs3)c(C(=O)O)n(Cc3ccc(F)cc3)c2c1 -5.97%
Cc1ccc2c(=O)cc(C(=O)Nc3sc4c(c3C(=O)NCc3ccco3)CCCC4)oc2c1C 4.52%
Cn1ncc2c(NCc3cccc(Cl)c3)ncnc21 0.939%
CCN(CC)S(=O)(=O)c1ccc2c(c1)N(CC(=O)NCc1ccccc1)C(=O)CS2 2.35%
CCOc1ccc(NC(=O)Nc2c(C)n(C)n(-c3ccccc3)c2=O)cc1 -6.77%
O=C(CN1C(=O)CCSc2ccc(S(=O)(=O)N3CCCC3)cc21)Nc1cccc(Cl)c1 -8.36%
Cc1cnc(NC(=O)C2=C(O)c3ccccc3S(=O)(=O)N2C)s1 -9.07%
NC(=O)CSc1ncc2c(n1)-c1ccccc1N(Cc1ccccc1)S2(=O)=O 2.63%
Cc1ccc(-c2noc(CCC(=O)Nc3ccc(F)cc3Cl)n2)cc1 1.21%
Cc1nn(C)c2c1c(-c1ccccc1)cc(=O)n2Cc1ccccc1F 7.57%
CCCS(=O)(=O)N1CCC(N2CCN(Cc3ccc(C)cc3)C(=O)C2=O)CC1 0.939%
Cc1c(Cl)cccc1NC(=O)N1CCN(Cc2cc(=O)n3nc(-c4ccccc4F)sc3n2)CC1 3.53%
Cc1cc(C)c2c(=O)cc(C(=O)NCCc3ccc(S(N)(=O)=O)cc3)oc2c1 5.5%
COc1ccc(NS(=O)(=O)c2ccc3c(c2)CCN3C(=O)C2CC2)cc1OC -2.67%
COc1cccc2cc(-c3nnc(Nc4ccccc4C)s3)c(=O)oc12 5.47%
COc1ccccc1N1CCN(C(=O)CCn2cnc3onc(-c4ccc(F)cc4)c3c2=O)CC1 1.91%
COC(=O)c1sccc1S(=O)(=O)N(CC(=O)Nc1ccc(C)cc1)c1ccccc1 -8.78%
Cc1noc2ncnc(Nc3ccc(F)cc3)c12 11.9%
Cc1cccc(NC(=O)C(c2ccccc2)N2Cc3ccccc3C2=O)c1C (stereo unspecified) 1.63%
Cc1cccc(NC(=O)CSc2nnc(-c3cccs3)o2)c1 1.73%
Cc1ccc(CCNC(=O)NCc2noc3ccc(C)cc23)cc1 -27.7%
CCOc1ccc(-c2cc3nc(C4CCN(C(=O)OC(C)(C)C)CC4)c(C(=O)Nc4ccc(C(=O)OC)cc4)cn3n2)cc1 -2.6%
Cn1ncc(C(=O)N2CCN(c3ccccc3)CC2)c1C1CCN(C(=O)OC(C)(C)C)CC1 -9.46%
COc1ccc(NC(=O)Cn2c(=O)nc(-c3ccccc3)c3ccccc32)cc1OC -7.52%
Cc1cc(C)cc(N2C(=O)CS(=O)(=O)C23C(=O)N(Cc2ccc(F)cc2)c2ccc(C)cc23)c1 (stereo unspecified) 16.4%
Cc1cc(F)ccc1NC(=O)C1CCCN(c2nnc(-n3c(C)ccc3C)s2)C1 (stereo unspecified) 1.64%
CSc1ccc(CCNC(=O)C(C)n2nc(C)c3c(C)n(-c4ccccc4)nc3c2=O)cc1 (stereo unspecified) -22.1%
CN(C)c1ccc(-c2nc(-c3ccccn3)no2)cc1[N+](=O)[O-] -2.98%
Cc1ccc(NC(=O)COc2ccc3oc4c(c3c2)CCCC4)c(C)c1 25.1%
Cc1ccc(CCNC(=O)Cn2nc(C)c3c(C)n(-c4ccc(C)cc4)nc3c2=O)cc1 -1.34%
Cc1cccc(CNC(=O)c2ccc(-c3nc(CS(=O)(=O)c4ccccc4)c(C)o3)cc2)c1 1.54%
CC(C)COc1ccc(C(=O)NCC2OCCc3ccccc32)cc1 (stereo unspecified) 7.21%
CCOC(=O)c1c(C)n(-c2ccccc2)c2ccc(OC(=O)c3ccccc3Cl)cc12 1.24%
Cc1ccc(Nc2cc(C(=O)NC3CCCC3)c3ccccc3n2)cc1C -11.5%
Nc1ncc(S(=O)(=O)NCc2ccccc2F)cn1 0.543%
COc1ccccc1N1CCN(C(=O)C2CCN(S(=O)(=O)c3cccc4nonc34)CC2)CC1 -2.3%
NC(=O)c1c(NC(=O)c2noc3c2CCCC3)sc2c1CCCC2 -3%
CCOc1ccc(CCNC(=O)C2CCCN(c3nnc(C)c4c(C)n(-c5ccccc5)nc34)C2)cc1 (stereo unspecified) -27.4%

outcome, inactive:
CCCCN(Cc1ccccc1)C(=O)CN(C)S(=O)(=O)c1ccc2c(c1)c(=O)n(C)c(=O)n2C
COCCCNC(=O)CC(c1cc(OC)c(OC)c(OC)c1)N1Cc2ccccc2C1=O (stereo unspecified)
CCOc1ccc(Sc2cc(C(=O)NCc3ccc(F)cc3)c3ccccc3n2)cc1
Cc1cc(=O)[nH]c2nnc(SCC(=O)Nc3cc(C(F)(F)F)ccc3Cl)n12
CCC(C)NC(=O)Cn1ncc2c(C)n(Cc3ccc(F)cc3)c(C)c2c1=O (stereo unspecified)
COc1cc(Cl)c(C)cc1NC(=O)CSc1cc(=O)n(C)c2cc(Cl)ccc12
COc1ccc(NC(=O)c2cccc(N3CCCS3(=O)=O)c2)cc1
Cc1ccccc1CNC(=O)C(=O)NCC(c1ccco1)S(=O)(=O)c1ccc(F)cc1 (stereo unspecified)
COc1cccc(CNC(=O)Cn2c(=O)c3cccn3c3ccc(F)cc32)c1OC
Cc1cc(C)n2nc(CNC(=O)c3cccc(Cl)c3)nc2n1
